The full ranking holds about 33,000 sequences; the median of “E-score (-0.5 to 0.5)” is about -0.016, and the highest 2% start at about 0.31. Some of the results follow.
biological target: Cst6 (UniProt P40535); experiment: PBM E-score (8-mer binding enrichment) (E-score (-0.5 to 0.5)); higher = stronger / more preferred TF binding; most listed sequences are background and not binding sites; conditions: protein concentration: 200 nM; construct: GST-DNA-binding domain
How it was run: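 GST-tagged yeast TFs (full-length or DNA-binding domain) were made by PURExpress in vitro transcription/translation and applied at about 100-200 nM to universal all-10-mer Agilent arrays. The arrays were made double-stranded by primer extension, on fresh or once-stripped slides. Bound protein was detected with fluorescent anti-GST, and scans were normalised with masliner. Each ungapped eight-base word, pooled with its reverse complement, received an E-score (modified Wilcoxon-Mann-Whitney statistic) from the Universal PBM Analysis Suite.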

Sequence	PBM E-score
CCTGTGCA	-0.255
AGACATTC	-0.00845
CCAAAGAA	0.114
AGAGCGCC	0.1
AGTACCGA	-0.0823
GCCACAAC	0.0583
CCACAGGC	-0.258
AGCCATCG	-0.0967
GACTGATC	-0.0497
AAGCCCGC	-0.108
ACGAGCCA	-0.0129
GATTGACC	-0.104
ACTCGACC	-0.22
ATAGATAA	0.16
CACTGTAG	0.237
CAGCACTG	-0.0109
GGCAAGGA	-0.0742
CCGGTAAA	-0.0305
AAGAGAGC	-0.204
AGGGATCG	-0.186
CACCTCAG	-0.149
CAAGGCCA	-0.156
CGTGAGGC	0.0522
GGCGGGAA	0.00251
ACGACTAT	0.107

Sequence	PBM E-score
CTCATCCC	-0.19
ACCGCCCT	-0.164
CAGATTGC	-0.0228
TGGATACA	-0.0309
AAAGTAAG	0.0662
CATCGGGC	-0.171
ACGACTAA	-0.0125
GCCAGCAA	-0.15
CCCGTTGA	-0.0143
GGCGGACC	-0.373
CTAAACAC	0.0664
CGCCGACG	-0.00344
ACACCCCC	-0.365
GTGGGAAC	-0.221
GGCGCCAC	-0.0013
CAGCTTCC	-0.149
CATCGATA	0.138
ATCGTAAC	0.163
ACGGTGGG	-0.0915
CGGTACCG	-0.0828
GGCTTTTA	-0.0345
GCTGGTCC	-0.241
AATATGTC	0.319
CGCGAGGA	-0.153
ACTTGTAA	0.146

Sequence	PBM E-score
AAATAAGC	0.0943
CACGGTCG	-0.373
TCTAGGCA	-0.198
CTGTCTAA	0.0558
TCCAAGCA	-0.209
GATTCCGC	0.0949
CGAAAAGC	-0.1
CCATTCGC	-0.234
TGTCGTAA	0.303
CCCGTGTC	-0.15
CAGAGGAA	-0.158
ATTTAGTC	0.209
GCCAACTA	-0.00854
CCGTAAGG	-0.113
GTTAGATA	0.0758
CACATGCC	0.0128
ACTCGCAT	0.151
CTTGGGGA	-0.148
AGTAAAGG	0.0518
AGAGGTGG	-0.0943
CACGCGAG	-0.0452
GAGCAGAC	0.00076
TGACAACA	0.346
ACTAGGCC	-0.356
ATTAAACA	0.125

Sequence	PBM E-score
AATATCTA	0.0899
GGTGACGA	0.463
CAGCTCCC	-0.251
GAACCTCC	-0.249
CACCTCAA	0.0981
ATGACATC	0.478
CCCTAGGG	-0.233
CTTGCCAA	-0.0495
TTCAGGAA	-0.00723
AAAGACCA	-0.231
GGAACCTA	-0.104
ACTGAATG	0.0705
CGCCTACG	0.0141
TGACCAAA	0.168
ATTAGGCG	0.204
AATAATCT	0.152
ATGAACGA	0.169
TGCGGCAA	0.19
GTAACCAC	-0.0805
CATACTTC	0.0315
CTTCCTTC	-0.24
AGAAAGAT	0.207
CTATGCTC	-0.217
ATTAGGGA	-0.175
AAACGCTG	-0.0466

Sequence	PBM E-score
AAGGTGTC	-0.014
ACGGTAGT	-0.143
AATAGGGG	-0.0553
CGCAGGAG	-0.0924
GCCCACAC	-0.134
ATGTGCAG	-0.081
CCTAGGGC	-0.266
ATTATTAC	0.339
CATGAATG	0.177
ATATCATG	0.19
CCTTCTAA	-0.00398
CGAATACA	0.0401
ATGCAGAA	0.148
GCAGTAAA	0.0152
AGTTTTCC	0.0828
AGCTTAAC	-0.0797
GCTGGCTA	-0.283
CCAGCGGG	-0.0814
AAAACACG	0.0517
ATATGTAG	-0.0318
AGCTTCTC	-0.136
GGTGGCGA	-0.11
CACATACC	-0.0713
GAACTTAC	0.125
GTCACGAA	0.298

Sequence	PBM E-score
CGGACAAA	0.1
AGTCGGTC	-0.28
AATGTTAC	0.0999
CGGTCTTA	-0.2
AAAACGGC	0.222
CGGAACAA	0.0367
CGTGGGCC	-0.228
AGCAAAAT	0.0787
CTGGACGA	-0.299
ATCTTGAA	0.0326
AGGGTACA	-0.0757
ACAGGGTC	-0.231
CGTCTTAA	0.0809
GTTTATGA	0.18
CTCTGGCA	-0.221
CTTTTACC	0.083
TTCTTCAA	0.168
AATCAGCC	-0.113
TAAGATAA	0.159
CTGTTGTC	0.147
CAGTGAGA	0.017
TCCAAACA	-0.0477
CGCTTTTC	-0.0543
GACAAGAC	-0.124
AACGTTGT	-0.0165

Sequence	PBM E-score
CGAAGACG	-0.159
CGATGTGA	-0.0315
ATACCTGG	-0.368
CCCAGAGA	-0.159
AATATACC	0.111
ACCATACC	-0.227
CATGTGTC	-0.0104
ACGAGGAG	0.0201
AAGTGGGC	-0.0164
AAAAGTTT	0.144
CGACCTCA	0.0422
CCCTACGA	-0.161
ATGAACCA	0.147
ATCAGCAT	0.211
CCGTGGAA	0.0459
CCTGGCAG	-0.132
CCCTAACC	-0.235
TATGCTGA	0.143
ACTGCAAA	0.0571
TGCGAGAA	-0.0601
CCTACTAA	-0.136
ACTTATCG	-0.181

From the supplement of paper PMC3334620
